# Experimental data reported in the antibiotic and cytotoxicity screens of Wong et al. (2023).
# This is one part of the list.
# Experiments:
# [1] = test system: HSkMC (human skeletal muscle cells); assay: cytotoxicity call (relative viability < 0.9); settings: 10 µM
# [2] = test system: HepG2; assay: cytotoxicity call (relative viability < 0.9); settings: 10 µM
# [3] = test system: S. aureus RN4220; assay: growth inhibition call (relative growth <= 0.2); settings: 50 µM
Structure (SMILES),cytotoxicity call [1],cytotoxicity call [2],growth inhibition call [3]
COc1ccc(NC(=O)Nc2ccc3c(c2)C(=O)N([C@H](C)CO)C[C@H](C)[C@H](CN(C)C(=O)c2ccccc2)OCCCC[C@@H](C)O3)cc1,inactive,inactive,inactive
C[C@H]1CCCCO[C@@H](CN(C)C(=O)Nc2ccc3c(c2)OCO3)[C@@H](C)CN([C@@H](C)CO)C(=O)c2cc(NC(=O)NC3CCCCC3)ccc2O1,inactive,inactive,inactive
CCS(=O)(=O)N[C@H]1CC[C@@H](CC(=O)NCc2ccccn2)O[C@H]1CO,inactive,inactive,inactive
O=C(C[C@H]1CC[C@@H]2[C@H](COC[C@@H](O)CN2C(=O)c2cnccn2)O1)NCc1ccc(Oc2ccccc2)cc1,inactive,inactive,inactive
COc1cccc(S(=O)(=O)N(C)C[C@@H]2Oc3ncc(C#CC(C)C)cc3C(=O)N([C@H](C)CO)C[C@@H]2C)c1,inactive,inactive,inactive
C[C@H](CO)N1C[C@H](C)[C@H](CN(C)S(=O)(=O)c2ccc(Cl)cc2)Oc2c(NC(=O)Nc3cccc4ccccc34)cccc2C1=O,inactive,inactive,inactive
CN(C)c1nc(NCCO)c2cnn(C)c2n1,inactive,inactive,inactive
C[C@@H]1CN([C@@H](C)CO)S(=O)(=O)c2ccc(C#CCN(C)C)cc2O[C@@H]1CN(C)Cc1ccccc1F,inactive,inactive,inactive
O=C(C[C@H]1C=C[C@H](NC(=O)Cc2ccccn2)[C@@H](CO)O1)NCCc1ccncc1,inactive,inactive,inactive
CN1C(=O)c2cc(NC(=O)Cc3cccs3)ccc2OC[C@H]2O[C@H](CC(=O)NCCc3ccncc3)CC[C@@H]21,inactive,inactive,inactive
CC1(C)OC2CC3C4CCC5=CC(=O)C=CC5(C)C4(F)C(O)CC3(C)C2(C(=O)CO)O1 (stereo not given),inactive,inactive,inactive
Cc1noc(C)c1NC(=O)N(C)C[C@H]1Oc2ccc(NC(=O)NC(C)C)cc2CC(=O)N([C@@H](C)CO)C[C@@H]1C,inactive,inactive,inactive
COc1cccc(S(=O)(=O)Nc2ccc3c(c2)[C@H]2C[C@H](CC(=O)NCc4cccc(F)c4)O[C@H](CO)[C@H]2O3)c1,inactive,inactive,inactive
c1cnc(-c2cc[nH]n2)cn1,inactive,inactive,inactive
C[C@H](CO)N1C[C@H](C)[C@H](CN(C)C(=O)Nc2cccc3ccccc23)Oc2ncc(C#CCC3CCCC3)cc2C1=O,inactive,inactive,inactive
C[C@H]1CN([C@@H](C)CO)C(=O)c2cccc(NC(=O)c3ccc(-c4nccs4)cc3)c2O[C@@H]1CN(C)Cc1ccc(C(=O)Nc2ccccc2N)cc1,inactive,inactive,inactive
Nc1nc(NC2CC2)c2ncn(C3C=CC(CO)C3)c2n1.O=S(=O)(O)O (stereo not given),inactive,inactive,inactive
COCCNC(=O)C[C@@H]1CC[C@@H]2[C@H](COC[C@@H](O)CN2S(=O)(=O)c2ccccc2C)O1,inactive,inactive,inactive
C[C@@H]1CN([C@H](C)CO)C(=O)Cc2cc(NS(=O)(=O)c3ccc(F)cc3)ccc2O[C@@H]1CN(C)S(C)(=O)=O,inactive,inactive,inactive
C=CCOC(=O)[C@H]1[C@@H]2C(=O)O[C@@H](c3ccccc3)[C@@H](c3ccccc3)N2[C@@H](c2ccc(OCCOC(=O)[C@H]3C[C@H]4C(=O)N[C@@H](CCCCNC(C)=O)C(=O)N4[C@H]3c3cccc(OCCO)c3)cc2)[C@]12C(=O)Nc1ccc(I)cc12,inactive,inactive,inactive
C[C@@H]1CN([C@@H](C)CO)C(=O)c2cc(NC(=O)CCC(F)(F)F)ccc2O[C@@H](C)CCCCO[C@@H]1CN(C)C(=O)Cc1ccccc1,inactive,inactive,inactive
C[C@@H]1CN([C@H](C)CO)C(=O)c2cc(NS(C)(=O)=O)ccc2O[C@@H](C)CCCCO[C@@H]1CN(C)C(=O)CCCN(C)C,inactive,inactive,inactive
O=C(CCCCCCC(=O)N/N=C/[C@H](O)[C@H](O)[C@@H](O)[C@@H](O)CO)NO,inactive,inactive,inactive
C[C@@H]1CN([C@H](C)CO)C(=O)Cc2cc(NS(=O)(=O)c3ccc(Cl)cc3)ccc2O[C@H]1CN(C)Cc1ccc(C(F)(F)F)cc1,active,active,inactive
Cc1noc(C)c1NC(=O)N(C)C[C@@H]1OCCCC[C@H](C)Oc2ccc(NC(=O)CCC(F)(F)F)cc2C(=O)N([C@@H](C)CO)C[C@@H]1C,inactive,inactive,inactive
